Test results taken from the antibiotic and cytotoxicity screens of Wong et al. (2023).
The list shows a part of the results.

Legend:
HSkMC = human skeletal muscle cells; assay: cytotoxicity call (relative viability < 0.9); conditions: 10 µM
HepG2 = assay: cytotoxicity call (relative viability < 0.9); conditions: 10 µM
S. aureus RN4220 = assay: growth inhibition call (relative growth <= 0.2); conditions: 50 µM

C[C@H]1CCCCO[C@@H](CN(C)C(=O)CCCN(C)C)[C@@H](C)CN([C@@H](C)CO)C(=O)c2cc(NS(C)(=O)=O)ccc2O1
inactive: cytotoxicity call (HSkMC) | cytotoxicity call (HepG2) | growth inhibition call (S. aureus RN4220)

C[C@@H]1CN([C@H](C)CO)C(=O)c2cc(NC(=O)Nc3ccc(C(F)(F)F)cc3)ccc2O[C@@H]1CN(C)S(C)(=O)=O
inactive: cytotoxicity call (HSkMC) | cytotoxicity call (HepG2) | growth inhibition call (S. aureus RN4220)

NC(=O)c1cnc2n(c1=O)CCS2
inactive: cytotoxicity call (HSkMC) | cytotoxicity call (HepG2) | growth inhibition call (S. aureus RN4220)

CO[C@@H](CN(C)S(=O)(=O)c1ccc(Cl)cc1)[C@@H](C)CN([C@H](C)CO)S(=O)(=O)c1cccc(Cl)c1
inactive: cytotoxicity call (HSkMC) | cytotoxicity call (HepG2) | growth inhibition call (S. aureus RN4220)

Cc1ccc(S(=O)(=O)Nc2ccc3c(c2)CC(=O)N([C@@H](C)CO)C[C@H](C)[C@@H](CN(C)C(=O)Nc2ccc(C(F)(F)F)cc2)O3)cc1
inactive: cytotoxicity call (HSkMC) | cytotoxicity call (HepG2) | growth inhibition call (S. aureus RN4220)

C[C@@H]1CCCCO[C@@H](CN(C)S(=O)(=O)c2cccs2)[C@H](C)CN([C@H](C)CO)C(=O)c2cc(NS(C)(=O)=O)ccc2O1
inactive: cytotoxicity call (HSkMC) | cytotoxicity call (HepG2) | growth inhibition call (S. aureus RN4220)

C[C@H](CO)N1C[C@H](C)[C@@H](CN(C)Cc2ccc(Cl)c(Cl)c2)Oc2ccc(NC(=O)Nc3ccccc3)cc2CC1=O
inactive: cytotoxicity call (HSkMC) | cytotoxicity call (HepG2) | growth inhibition call (S. aureus RN4220)

C[C@H](CO)N1C[C@H](C)[C@@H](CN(C)Cc2ccc(C(=O)O)cc2)Oc2c(NC(=O)c3cnccn3)cccc2C1=O
inactive: cytotoxicity call (HSkMC) | cytotoxicity call (HepG2) | growth inhibition call (S. aureus RN4220)

C[C@@H]1CN([C@H](C)CO)C(=O)CCCn2cc(nn2)CO[C@@H]1CN(C)S(=O)(=O)c1ccc(Oc2ccccc2)cc1
inactive: cytotoxicity call (HSkMC) | cytotoxicity call (HepG2) | growth inhibition call (S. aureus RN4220)

CNC[C@H]1OCCCC[C@@H](C)Oc2ccc(NS(=O)(=O)c3cn(C)cn3)cc2C(=O)N([C@H](C)CO)C[C@@H]1C
inactive: cytotoxicity call (HSkMC) | cytotoxicity call (HepG2) | growth inhibition call (S. aureus RN4220)

CC(C)N1C[C@H](C)[C@@H](CN(C)Cc2ccc(Oc3ccccc3)cc2)Oc2c(NC(=O)c3ccccn3)cccc2C1=O
inactive: cytotoxicity call (HSkMC) | cytotoxicity call (HepG2) | growth inhibition call (S. aureus RN4220)

C[C@@H]1CN([C@@H](C)CO)C(=O)Cc2cc(NC(=O)CCCCCC(=O)Nc3ccccc3N)ccc2O[C@H]1CN(C)C(=O)Nc1ccc(C(F)(F)F)cc1
inactive: cytotoxicity call (HSkMC) | cytotoxicity call (HepG2) | growth inhibition call (S. aureus RN4220)

CCn1nnc2c(=S)nc[nH]c21
inactive: cytotoxicity call (HSkMC) | cytotoxicity call (HepG2) | growth inhibition call (S. aureus RN4220)

O=C(O)c1cc(O)[nH]c(=O)c1
inactive: cytotoxicity call (HSkMC) | cytotoxicity call (HepG2) | growth inhibition call (S. aureus RN4220)

Cc1cccc(N2C[C@@H](CN)OC2=O)c1
inactive: cytotoxicity call (HSkMC) | cytotoxicity call (HepG2) | growth inhibition call (S. aureus RN4220)

Cc1noc(C)c1NC(=O)Nc1ccc2c(c1)CC(=O)N([C@@H](C)CO)C[C@@H](C)[C@H](CN(C)S(C)(=O)=O)O2
inactive: cytotoxicity call (HSkMC) | cytotoxicity call (HepG2) | growth inhibition call (S. aureus RN4220)

O=C(CN1CCOCC1)N[C@H]1CC[C@H](CCNC(=O)C2CCCCC2)O[C@@H]1CO
inactive: cytotoxicity call (HSkMC) | cytotoxicity call (HepG2) | growth inhibition call (S. aureus RN4220)

Cc1noc(C)c1NC(=O)N(C)C[C@@H]1Oc2ccc(NS(=O)(=O)c3c(C)noc3C)cc2CC(=O)N([C@@H](C)CO)C[C@@H]1C
inactive: cytotoxicity call (HSkMC) | cytotoxicity call (HepG2) | growth inhibition call (S. aureus RN4220)

C[C@@H]1CN([C@@H](C)CO)C(=O)c2cc(NS(C)(=O)=O)ccc2O[C@@H]1CN(C)C(=O)Nc1ccc(F)cc1
inactive: cytotoxicity call (HSkMC) | cytotoxicity call (HepG2) | growth inhibition call (S. aureus RN4220)

C[C@@H]1CN([C@@H](C)CO)C(=O)c2cc(NC(=O)c3ccccc3)ccc2O[C@@H](C)CCCCO[C@@H]1CN(C)C(=O)Nc1ccccc1
inactive: cytotoxicity call (HSkMC) | cytotoxicity call (HepG2) | growth inhibition call (S. aureus RN4220)

COc1cc(-c2cc(=O)c3c(=O)cc(-c4ccc(O)c(OC)c4)n(CCc4ccccc4)c3s2)ccc1O
inactive: cytotoxicity call (HSkMC) | cytotoxicity call (HepG2) | growth inhibition call (S. aureus RN4220)

C[C@@H]1CN([C@@H](C)CO)C(=O)c2cc(NC(=O)Nc3ccccc3)ccc2O[C@@H](C)CCCCO[C@H]1CN(C)C(=O)CCC(F)(F)F
inactive: cytotoxicity call (HSkMC) | cytotoxicity call (HepG2) | growth inhibition call (S. aureus RN4220)

C[C@@H]1CCCCO[C@@H](CN(C)CC2CC2)[C@@H](C)CN([C@H](C)CO)C(=O)c2cc(NC(=O)Nc3ccc4c(c3)OCO4)ccc2O1
inactive: cytotoxicity call (HSkMC) | cytotoxicity call (HepG2) | growth inhibition call (S. aureus RN4220)

CC(C)NC(=O)N(C)C[C@@H]1Oc2ccc(NS(=O)(=O)c3ccccc3)cc2C(=O)N([C@@H](C)CO)C[C@H]1C
inactive: cytotoxicity call (HSkMC) | cytotoxicity call (HepG2) | growth inhibition call (S. aureus RN4220)

COc1ccccc1CNC(=O)C[C@H]1CC[C@H]2[C@@H](COC[C@@H](O)CN2C(=O)Nc2ccc(Cl)cc2)O1
inactive: cytotoxicity call (HSkMC) | cytotoxicity call (HepG2) | growth inhibition call (S. aureus RN4220)

CN1C(=O)[C@H]2[C@H](C1=O)[C@H]1C=C(CCCO)[C@@H]2[C@H](c2ccc(CN3CCCC3)cc2)N1Cc1sc2ccccc2c1Cl
inactive: cytotoxicity call (HSkMC) | cytotoxicity call (HepG2) | growth inhibition call (S. aureus RN4220)

C[C@H](CO)N1C[C@H](C)[C@@H](CN(C)C(=O)CN(C)C)Oc2cc(C#Cc3ccc(F)cc3)ccc2S1(=O)=O
inactive: cytotoxicity call (HSkMC) | cytotoxicity call (HepG2) | growth inhibition call (S. aureus RN4220)

COCCOC(=O)N1C(=O)[C@@]2(c3cc(C#Cc4ccc(OC)cc4)ccc31)[C@H](c1ccccc1OCCO)N1[C@H](c3ccccc3)[C@H](c3ccccc3)OC(=O)[C@H]1[C@@H]2C(=O)N1CCN(c2ncccn2)CC1
inactive: cytotoxicity call (HSkMC) | cytotoxicity call (HepG2) | growth inhibition call (S. aureus RN4220)
